Assay results: publication doi:10.1101/2022.04.07.487497 (bioRxiv, 2022)

Molecular target: human recombinant mesothelin (MSLN domain, residues 296-606) (human, UniProt Q13421)
Test: ELISA

B1: amatuximab (MORAb-009) (antibody, V domains shown)
VH: not shown
VL: not shown
binding result: binds
